# Inconclusive means that the source gave no clear call. Such entries were picked first, then a sample of the others. For some assays here: A potency beside an inconclusive call is a rough fit, not a confirmed value. For some assays here: “Side channel” marks fits to a control or component signal instead of the main read-out. Activity calls are given as the source filed them. Unless noted, the call rests on the fitted dose curve; in most records, active means well fitted curve in either direction with a large enough effect (not every such curve was filed as active); inconclusive means small, poorly fitted or top-dose-only effect, or another doubt; inactive means flat fitted curve, though single readings scatter.
# Legend:
# [1] = AP1 Signaling Pathway (AID 357); settings: ME-180 AP-1-bla reporter, EGF-induced, beta-lactamase ratio, 5 h; at 17.2 µM (top of the series) unless noted;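 further: ME-180 reporter cells stimulated with EGF at its EC50 level; top concentration of the series differs between compounds; on the % scale 0 is the no-effect control and ±100 the full control effect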
# Summary of the method: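 Read-out was the 460nm/530nm emission ratio (excitation 405nm) after CCF4 loading for 2.5 hours at room temperature. Cells carried an AP-1-driven beta-lactamase reporter, were stimulated with EC50 EGF plus compound for 5 hours, and AC50 values came from titrations.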
# [2] = qHTS Assay for Identification of Small Molecule Agonists for Hypoxia Response Element Signaling Pathway (AID 914; active means well fitted activation curve with a large enough effect in the signal ratio, with a control signal flat, not every such curve was filed as active; inconclusive means small, poorly fitted or top-dose-only effect, or effect the other way, or a change in a side signal; the % refers to the signal ratio; further: potency means the concentration at half of the fitted maximal effect; on activation: top concentration of the series differs between compounds; % of control where 0% means no effect); settings: ME-180 (cervical carcinoma) HRE-bla reporter, beta-lactamase ratio, CoCl2, 17 h; activation: hits give high values
# Summary of the method: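 HRE-bla ME-180 cells with beta-lactamase reporter under hypoxia response element, compounds with EC50 CoCl2 for 17 hours at 37 C. CCF4 substrate, 460nm/530nm emission ratio gave %Activity; AC50 from titration series.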
# [3] = qHTS Assay for Identification of Small Molecule Agonists for Thrombopoietin (TPO) Signaling Pathway (AID 917; active means well fitted activation curve with a large enough effect; inconclusive means small, poorly fitted or top-dose-only effect, or effect the other way; further: potency means the concentration at half of the fitted maximal effect); settings: TPO signaling pathway reporter cells, agonist qHTS, stimulated with TPO at its EC50; activity, positive = activation: at 38.5 µM (top of the series)
# Summary of the method: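 Murine Ba/F3 cells stably expressing human TPO receptor and a Glycoprotein IIb promoter–luciferase reporter were IL-3-starved overnight, then treated with compounds plus TPO (26 pM final, its EC50) for 24 hrs at 37 C; luminescence was read.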
# [4] = molecular target: Cytochrome P450 1A2 (Homo sapiens) (UniProt P05177); test: p450-cyp1a2 (AID 410; calls by dose curve; further: potency means the concentration at half of the fitted maximal effect;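 on activity change, negative = inhibition: top concentration of the series differs between compounds; -100% = full effect of reference inhibitor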)
# Chain of UniProt P05177 (P05177 whole entry, looked up): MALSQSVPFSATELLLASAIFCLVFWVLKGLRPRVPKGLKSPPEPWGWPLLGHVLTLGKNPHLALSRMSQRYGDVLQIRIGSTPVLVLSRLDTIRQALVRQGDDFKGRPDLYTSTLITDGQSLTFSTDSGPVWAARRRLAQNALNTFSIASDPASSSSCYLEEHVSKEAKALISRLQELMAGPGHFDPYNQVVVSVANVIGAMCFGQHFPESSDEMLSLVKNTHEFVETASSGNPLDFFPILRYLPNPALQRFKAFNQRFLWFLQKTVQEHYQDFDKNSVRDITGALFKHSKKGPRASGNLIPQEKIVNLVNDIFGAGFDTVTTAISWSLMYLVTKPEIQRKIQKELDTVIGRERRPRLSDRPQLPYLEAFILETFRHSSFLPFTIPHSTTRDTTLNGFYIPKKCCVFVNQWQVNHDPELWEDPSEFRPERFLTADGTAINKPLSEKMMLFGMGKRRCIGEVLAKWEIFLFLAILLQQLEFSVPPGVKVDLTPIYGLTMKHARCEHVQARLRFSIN
# Summary of the method: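 Inhibition was calculated relative to 57 uM furafylline (full inhibition). The reaction used human CYP1A2 at 20nM with Luciferin-ME at its Km, 100uM, driven by an NADPH-regenerating system for 60 min at room temperature.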
# Tags describe the fitted curve by direction and shape or compound fluorescence and quenching.
smiles,measurement,setting,value
Cc1cc2nc3[nH]c4c(Cl)cc(Cl)cc4c3nc2cc1C,"activity change, negative = inhibition",[1],inactive: -14% [at 7.69 µM]
same,activation,[2],inconclusive: -2.88%
CCOc1cc2nc(-c3ccc(OC)c(OC)c3)nc(N3CCOCC3)c2cc1OC,"activity change, negative = inhibition",[1],inconclusive: -33.3% [inhibitor]
same,Potency,[2],"inconclusive: 0.126 µM [inhibitor, partial curve]"
COc1cc(NC2=CC(=O)CC(C)(C)C2)cc(OC)c1OC,"activity change, negative = inhibition",[1],inactive: 7.47%
same,activation,[2],inactive: -12.9%
Cn1c(OCc2cccnc2)nc2c1c(=O)n(Cc1ccc(Cl)cc1)c(=O)n2C,"activity change, negative = inhibition",[1],inactive: -16.3%
same,Potency,[2],"inconclusive: 7.94 µM [inhibitor, partial curve]"
O=C(CNC1C(=O)Nc2ccccc21)Sc1ccccc1 (centres undefined),"activity change, negative = inhibition",[1],inactive: -0.11%
same,activation,[2],inactive: 4%
[N-]=[N+]=CC(=O)c1ccnc(C(=O)C=[N+]=[N-])c1,"activity change, negative = inhibition",[1],inconclusive: 6.88% [activator]
same,activation,[2],inconclusive: 36.6%
CCOC(=O)C1=C(N)n2c(s/c(=C\c3ccco3)c2=O)=C(C(=O)OC(C)C)C1c1ccco1 (centres undefined),"activity change, negative = inhibition",[1],inactive: 9.43%
same,Potency,[2],"inconclusive: 10 µM [cytotoxic, side channel, partial curve]"
CCOC(=O)c1c(-c2cccs2)csc1NC(=O)c1ccncc1,"activity change, negative = inhibition",[1],inconclusive: 44.9% [activator]
same,Potency,[2],active: 6.31 µM
Cc1cc(C)c(C#N)c(SCC(=O)N2CCN(Cc3ccccc3)CC2)n1,"activity change, negative = inhibition",[1],inconclusive: 10.5% [activator]
same,Potency,[2],"inconclusive: 10 µM [inhibitor, single point]"
COc1ccccc1C(CC(=O)Nc1nccs1)c1ccco1 (centres undefined),"activity change, negative = inhibition",[1],inactive: -11.9%
same,Potency,[2],"inconclusive: 6.31 µM [inhibitor, partial curve]"
COc1ccccc1-c1nnc2sc(C3CCCCC3)nn12,"activity change, negative = inhibition",[1],inconclusive: -36.3% [inhibitor]
same,Potency,[2],"inconclusive: 10 µM [inhibitor, partial curve]"
COc1ccc(-c2nn3c(C4CCCCC4)nnc3s2)cc1OC,"activity change, negative = inhibition",[1],inconclusive: -35.5% [inhibitor]
same,Potency,[2],"inconclusive: 0.126 µM [inhibitor, full curve]"
COc1cccc(Cn2c(NCc3ccco3)nc3c2c(=O)n(C)c(=O)n3C)c1,"activity change, negative = inhibition",[1],inactive: -11%
same,Potency,[2],"inconclusive: 7.94 µM [inhibitor, partial curve]"
C=C(C)CNCCN,"activity change, negative = inhibition",[1],inactive: 0.933% [at 7.69 µM]
same,activation,[2],inconclusive: -0.377%
Cn1c(=O)c2c(nc(NCc3ccc4c(c3)OCO4)n2Cc2ccccc2)n(C)c1=O,"activity change, negative = inhibition",[1],inactive: -13.1%
same,Potency,[2],"inconclusive: 10 µM [inhibitor, partial curve]"
COC(=O)c1[nH]c(C)c(/C(O)=C2\C(=O)C(=O)N(CCN3CCOCC3)C2c2ccccc2OC)c1C (centres undefined),"activity change, negative = inhibition",[1],inactive: 3.47%
same,activation,[2],inactive: 0.0679%
O=C(C[n+]1ccc2ccccc2c1)c1ccc2ccc3ccccc3c2c1,"activity change, negative = inhibition",[1],inactive: 0.901% [at 7.69 µM]
same,Potency,[2],"inconclusive: 3.98 µM [inhibitor, single point]"
COc1ccc(C2C(C#N)=C(C)NC3=C2C(=O)c2ccccc23)cc1 (centres undefined),"activity change, negative = inhibition",[1],inactive: -6.13%
same,Potency,[2],"inconclusive: 12.6 µM [inhibitor, single point]"
CC(=O)N1CCN(c2nc(CC(C)C)c3c(c2C#N)CCC3)CC1,"activity change, negative = inhibition",[1],inactive: -24.1%
same,activation,[2],inactive: 24.5%
COc1cccc(OC)c1-c1nn2c(-c3ccco3)nnc2s1,"activity change, negative = inhibition",[1],inactive: -10.9%
same,Potency,[2],"inconclusive: 2.51 µM [inhibitor, partial curve]"
CCCOc1ccc(Cl)cc1CN1CCOCC1,"activity change, negative = inhibition",[1],inconclusive: 31.4% [activator]
same,Potency,[2],"inconclusive: 7.94 µM [activator, partial curve]"
COc1ccc(OCC(O)Cn2c(Nc3cccc(C)c3)nc3c2c(=O)n(C)c(=O)n3C)cc1 (centres undefined),"activity change, negative = inhibition",[1],inconclusive: -36.8% [inhibitor]
same,activation,[2],inconclusive: -11.4%
COc1ccccc1Nc1ncc(-c2cccs2)s1,"activity change, negative = inhibition",[1],inconclusive: 6.08% [activator]
same,activation,[2],inconclusive: -27.8%
C=C(C)Cn1c(-c2ccc(OC)cc2)nc2ccccc21,"activity change, negative = inhibition",[1],inactive: -23.2%
same,Potency,[2],"inconclusive: 12.6 µM [inhibitor, single point]"
COc1cccc(-c2nc(NCc3ccco3)c3ccccc3n2)c1O,"activity change, negative = inhibition",[1],inconclusive: 87.8% [activator]
same,Potency,[2],"inconclusive: 2.51 µM [inhibitor, full curve]"
COCCCNc1nc2c(c(=O)[nH]c(=O)n2C)n1CC(O)COc1ccccc1 (centres undefined),"activity change, negative = inhibition",[1],inconclusive: 70.9% [activator]
same,activation,[2],inactive: -6.56%
Cc1noc(C)c1-c1cc(N(C)C)ncn1,"activity change, negative = inhibition",[1],inactive: 10% [at 7.69 µM]
same,activation,[2],inactive: 0.655%
COC(=O)c1sc(NC(=O)c2oc3ccccc3c2C)nc1C,"activity change, negative = inhibition",[1],inconclusive: 39.7% [activator]
same,Potency,[2],"inconclusive: 0.01 µM [inhibitor, full curve, poor fit]"
CC(C)c1nc(N2CCOCC2)c(C#N)c2c1COC(C)(C)C2,"activity change, negative = inhibition",[1],inactive: -19.1%
same,activation,[2],inactive: -24.7%
C=C(C)[C@H]1CC[C@]2(CO)CC[C@]3(C)[C@@H](CC[C@H]4[C@@]5(C)CC[C@@H](O)C(C)(C)[C@@H]5CC[C@@]43C)[C@H]12,"activity change, negative = inhibition",[1],inconclusive: 54.9% [activator]
same,Potency,[2],active: 1.26 µM
N#Cc1nc(-c2cccs2)oc1NCc1ccccc1Cl,"activity change, negative = inhibition",[1],inconclusive: -58.4% [inhibitor]
same,Potency,[2],"inconclusive: 5.01 µM [inhibitor, partial curve]"
O=C(O)C1CC=CCC1C(=O)N1CCN(c2nc(-c3ccccc3)c3ccccc3n2)CC1 (centres undefined),"activity change, negative = inhibition",[1],inconclusive: 35.1% [activator]
same,Potency,[2],active: 3.98 µM
N#Cc1nc(-c2cccs2)oc1NCc1ccccc1,"activity change, negative = inhibition",[1],inconclusive: -55% [inhibitor]
same,Potency,[2],"inconclusive: 7.94 µM [inhibitor, partial curve]"
Cn1c(Cl)nc2c1c(=O)n(Cc1cccc(Br)c1)c(=O)n2C,"activity change, negative = inhibition",[1],inconclusive: -37.8% [inhibitor]
same,Potency,[2],"inconclusive: 7.94 µM [inhibitor, partial curve]"
Oc1ccccc1CNn1cnnc1,"activity change, negative = inhibition",[1],inactive: -0.712%
same,activation,[2],inactive: 7.68%
COC(=O)C(NC(C)=O)(Nc1ccc(Br)cn1)C(F)(F)F (centres undefined),"activity change, negative = inhibition",[1],inactive: 0.568%
same,activation,[2],inactive: 3.3%
COc1ccc(-c2nc(N)c3ncn([C@H]4O[C@@H](CO)[C@@H](O)[C@@H]4O)c3n2)cc1,"activity change, negative = inhibition",[1],inactive: -12.4% [at 7.69 µM]
same,activation,[2],inconclusive: -0.0842%
Cc1sc(-n2c(C)cc(/C=N/n3cnnc3)c2C)c(C#N)c1C,"activity change, negative = inhibition",[1],inconclusive: 23.3% [activator]
same,activation,[2],inconclusive: -28.1%
C1CNCCNCCNCCN1,"activity change, negative = inhibition",[1],inactive: -9.33%
same,Potency,[2],"inconclusive: 12.6 µM [inhibitor, single point]"
CCCSC1=C(C#N)C(c2ccc(OC)cc2)C2=C(CC(C)(C)CC2=O)N1 (centres undefined),"activity change, negative = inhibition",[1],inconclusive: -34.8% [inhibitor]
same,activation,[2],inconclusive: -23.5%
C=CCn1c(=S)[nH]c2nc3c(cc2c1=O)COC(C)(C)C3,"activity change, negative = inhibition",[1],inconclusive: 66.8% [activator]
same,activation,[2],inactive: -5.87%
OC1(C2(O)CC(c3ccccc3)ON2)CCCCC1 (centres undefined),"activity change, negative = inhibition",[1],inconclusive: 46% [activator]
same,activation,[2],inactive: -4.48%
CN1CCc2c(C#N)c(N3CCCCC3)nc(NCc3ccccc3)c2C1,"activity change, negative = inhibition",[1],inconclusive: 42.7% [activator]
same,Potency,[2],"inconclusive: 3.16 µM [activator, single point]"
N[C@@H](CSC(=O)c1ccccc1)C(=O)O,"activity change, negative = inhibition",[1],inactive: -5.26% [at 7.69 µM]
same,activation,[2],inconclusive: 6.84%
CC[C@]1(O)C[C@H]2CN(CCc3c([nH]c4ccccc34)[C@](C(=O)OC)(c3cc4c(cc3OC)N(C)[C@@H]3[C@](O)(C(=O)OC)[C@H](OC(C)=O)[C@]5(CC)C=CCN6CC[C@]43[C@@H]65)C2)C1,"activity change, negative = inhibition",[1],inconclusive: 43.2% [activator] [at 38 µM]
same,Potency,[2],"inconclusive: 0.316 µM [inhibitor, full curve]"
same,Potency,[3],"inconclusive: 0.398 µM [inhibitor, full curve]"
Cc1ccc(OCc2nnc(NC(=O)c3ccco3)s2)c(C)c1,"activity change, negative = inhibition",[1],inactive: -4.34%
same,activation,[2],inactive: -11.9%
Nc1c(Br)cc2oc(-c3ccccc3)nc2c1Br,"activity change, negative = inhibition",[1],inconclusive: 63% [activator]
same,Potency,[2],"inconclusive: 0.0794 µM [inhibitor, full curve]"
O=C(CCc1ccc(O)cc1)c1c(O)cc(O)cc1O[C@@H]1O[C@@H](CO)[C@@H](O)[C@@H](O)[C@H]1O,Potency,[4],inactive
C[C@@H](C(=O)Nc1ccc2ccccc2c1)[C@H]1C[C@]1(C)[C@H](NC(=O)Oc1ccc(F)cc1)c1ccccc1,Potency,[4],inactive
COc1cccc(-c2nnc3sc(-c4ccc(C)cc4)nn23)c1,"activity change, negative = inhibition",[1],inconclusive: -30.9% [inhibitor]
same,Potency,[2],"inconclusive: 10 µM [inhibitor, single point]"
Cc1cc(C)c(-n2c(O)c(C=NCCN3CCOCC3)c(=O)[nH]c2=O)c(C)c1,"activity change, negative = inhibition",[1],inconclusive: 50% [activator]
same,activation,[2],inactive: -6.53%
CC(C)C[C@@H](CC(=O)N[C@@H](CCCN)CC(=O)N[C@@H]1CCNC[C@H]1C(=O)N[C@H](CC(=O)N[C@@H](CCC(=O)O)CC(=O)O)Cc1ccccc1)NC(=O)[C@@H]1CNCC[C@H]1N,Potency,[4],inconclusive: 39.8 µM [decreasing]
Nc1c(C(=O)NCc2ccco2)sc2nc(N3CCOCC3)c3c(c12)CCCC3,"activity change, negative = inhibition",[1],inactive: -27.5%
same,Potency,[2],"inconclusive: 7.94 µM [activator, partial curve]"

# Reference: PubChem BioAssay (NCATS)
